From PubChem BioAssay AID1508624 (National Center for Advancing Translational Sciences (NCATS), 2021)
Among all 48,000 compounds or so, about 120 (0.25%) were called active. Roughly 4% stayed inconclusive and do not appear here. The call rests on the fitted dose curve; in most records, active means well fitted activation curve with a large enough effect; inconclusive means small, poorly fitted or top-dose-only effect, or another doubt; inactive means no such curve, though single readings can be large or run the other way. The list shows a part of the results.

Experiment: Primary qHTS for Identification of Small Molecule Activators of Huntingtin-Antisense Promoter Activity; further: nearly all actives have a fitted effect of over 55% in size
Details: HEK293 HTT-AS promoter firefly luciferase reporter (activity 0% = vehicle and -100% = no light), 24 h; series mostly up to 57.5 µM; activity change, positive = activation: at the top concentration
Procedure, shortened: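 HEK293 luciferase promoter-reporter cells (2,500/well) plated 24 h, then compounds added at up to 57.5 uM final for 24 h at 37 °C. Firefly luminescence by Dual-Glo, normalized to vehicle (0%) and zero RLU (-100%).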

Activity change, positive = activation, inactive:
COc1ccccc1-c1noc(CSc2nnc(-c3ccccc3)n2-c2ccc(C)c(C)c2)n1 -11%
CC(=O)c1ccc(NC(=O)CSc2nc(-c3ccccc3C)nc3c2c(=O)n(C)c(=O)n3C)cc1 -2.23%
CCOC(=O)c1c(C)oc2nc(C)nc(N(C)Cc3ccccc3)c12 -38.2%
O=C(CSc1ncc(-c2ccc(Cl)cc2)[nH]1)Nc1ccccc1F -12.2%
CCOc1ccc(C(=O)c2cn(Cc3cccc(OC)c3)c3cc4c(cc3c2=O)OCO4)cc1 -20.8%
O=C(C1CCCN(S(=O)(=O)c2cccc3nonc23)C1)N1CCN(c2cccc(C(F)(F)F)c2)CC1 (stereo not drawn) -36%
COc1ccc(S(=O)(=O)NCc2ccc3c(c2)CCN3C(C)=O)cc1OC -25.2%
Nc1ncnc2c1ncn2[C@@H]1O[C@H](COP(=O)(O)O)[C@@H](O)[C@H]1O -1%
Cc1ccc(NC(=O)CCS(=O)(=O)c2ccc3nc(C)sc3c2)c(C)c1 -9.7%
CCOc1ccc(CN2C(=O)c3ccccc3Sc3ccc(C(=O)NCCCN4CCOCC4)cc32)cc1 -31.9%
CCOc1ccc(S(=O)(=O)N(CC(=O)NCCc2ccc(OC)cc2)c2ccccc2)cc1 -20.2%
COc1ccccc1N1CCN(c2c(CN3CCCC3)c(=O)oc3ccccc23)CC1 -8.34%
CCOc1ccc(C(=O)Nc2ccc(NC(=O)c3ccccc3)cc2)cc1Br 2.58%
COC(=O)c1ccc([C@H]2Nc3ccc(S(=O)(=O)Nc4ccc(F)cc4)cc3[C@H]3C=CC[C@H]32)cc1 -14.5%
Cc1ccc(S(=O)(=O)N2CCCc3cc(NS(=O)(=O)c4ccccc4)ccc32)cc1 -11.3%
Cc1ccc(OCC(=O)N(Cc2nc(-c3ccccc3)no2)C(C)C)cc1C -23.2%
CN(C)c1ncc(C(=O)NCc2ccccc2Cl)cn1 -0.941%
CCCCCNC(=O)C1CCC(Cn2c(=O)c3sccc3n(CC(=O)NCc3cccc(OC)c3OC)c2=O)CC1 (stereo not drawn) -20.2%
CCCCC(=O)Nc1nnc(S(=O)(=O)N(C)Cc2ccccc2)s1 -10.1%
CCSc1nnc2c(n1)OC(c1ccc(OC)c(OC)c1)N(C(C)=O)c1ccccc1-2 (stereo not drawn) 0%
CN(C)c1ccc(CNC(=O)C2CCN(Cc3cc4ccccc4n3Cc3ccccc3)CC2)cc1 -23.6%
Cc1cccc(N(C)S(=O)(=O)c2cc3[nH]c(=O)c(=O)[nH]c3cc2C)c1 -1.83%
NS(=O)(=O)c1cc2c(cc1Cl)NCNS2(=O)=O
Cc1ccc(-c2noc(CSc3nnc(C)n3-c3ccc(C)c(C)c3)n2)cc1 -33.7%
COc1ccc(Cl)cc1NC(=O)CSc1ccc2nnc(CCNS(=O)(=O)c3ccccc3)n2n1 -16.9%
C[N+]1(C)CCC(=C(c2ccccc2)c2ccccc2)CC1 -9.58%
Cc1ccc2[nH]c(=O)c3cc(C(=O)NC4CCC(C)CC4)sc3c2c1 (stereo not drawn) -11%
CCOc1ccc(NC(=O)c2cc(S(=O)(=O)N3CCN(c4ccccc4F)CC3)ccc2F)cc1 -21.6%
CCCCN(C)C(=O)CSc1nc2ccccc2nc1Cc1ccc(C)cc1 -5.64%
O=c1cc(-c2ccccc2)n2c(SCc3ccccc3Cl)nnc2[nH]1 -3.26%
COc1ccc(-n2c(=O)c3c4c(sc3n(C)c2=O)CN(C(C)=O)CC4)cc1 -3.54%
COc1ccccc1CNC(=O)C(=O)NCC(c1cccs1)S(=O)(=O)c1cccs1 (stereo not drawn) -20.3%
Cc1ccc2oc(C(=O)N(Cc3sccc3C)C3CCS(=O)(=O)C3)c(C)c2c1 (stereo not drawn) -37.3%
COc1cccc(CNC(=O)c2nc(Cn3nc(C)c(Br)c3C)no2)c1 -2.1%
CCOc1ccc(Nc2c(S(=O)(=O)c3ccc(C)cc3)cnc3ccc(F)cc23)cc1 -44.5%
CON=C(C(=O)N[C@@H]1C(=O)N2C(C(=O)O)=C(Cn3ccc(=N)n3CCO)CS[C@H]12)c1csc(N)n1 -14.5%
COc1cccc2c1cc1c(=O)n(CC(=O)NCc3ccco3)nc(C)n12 -19.2%
Cc1c(Cl)cccc1NC(=O)CSc1nc(=O)n(Cc2ccco2)c2c1CCC2 -46.2%
Cc1ccc(CCNC(=O)CN(c2ccc(C)cc2)S(=O)(=O)N(C)C)cc1 -16.5%
Cn1nnnc1SCCCNCc1cccc(OCc2ccccc2)c1 -7.28%
O=C(NCc1ccc(Cl)cc1)NC1COc2ccccc2C1 (stereo not drawn) -13%
CC1CCN(S(=O)(=O)c2ccc3c(c2)N(CC(=O)NCC(C)c2ccccc2)C(=O)CO3)CC1 (stereo not drawn) -29.6%
Cc1c(C(=O)OCc2ccccc2)[nH]c2c1C(=O)CC(c1ccc(Cl)cc1)C2 (stereo not drawn) -12.4%
O=C(NCc1ccco1)c1ccc(Cn2c(SCc3ccccc3F)nc3cccnc32)cc1 -3.4%
O=C1c2cccc(O)c2C(=O)c2c(O)cc(CO)cc21 -16.2%
CN(C)CCC=C1c2ccccc2C=Cc2ccccc21
O=C(NC1CCCCC1)c1ccc2c(c1)N(Cc1ccccc1Cl)C(=O)c1ccccc1S2 -15.8%
CN(C)CCc1c[nH]c2ccc(C[C@H]3COC(=O)N3)cc12
CCOc1ccccc1NC(=O)C1CCCN1S(=O)(=O)c1ccc2nc(-c3ccccc3)[nH]c2c1 (stereo not drawn) -39.5%
COc1ccc(CCNC(=O)Cn2cc(S(=O)(=O)Cc3ccc(F)cc3)c3ccccc32)cc1OC -27.2%
CCOc1ccc(C(=O)c2oc3ccccc3c2NC(=O)c2cc(-c3ccc(C)cc3)on2)cc1 -1.86%
Cc1ccc(-c2cc(C(F)(F)F)n3ncc(-c4ccccc4)c3n2)cc1 -7.44%
CCOc1ccc(S(=O)(=O)Nc2ccc3oc4c(c3c2)CC(C)CC4)cc1 (stereo not drawn) -7.8%
COc1ccccc1CNC(=O)COCc1cc(-c2ccc3c(c2)OCO3)on1 -12.1%
COc1ccc(/C=C(\C#N)c2nc3ccccc3c(=O)[nH]2)cc1OC -19.2%
CC(C)CN(CC(C)C)CC(O)Cn1cc(/C=C/C(=O)c2ccccc2)c2ccccc21 (stereo not drawn) -27.3%
O=C(COc1ccc(F)cc1)OCc1cc(=O)n2nc(-c3cccs3)sc2n1 7.02%
COc1cccc(CNS(=O)(=O)c2c(C(=O)N3CCC(C)CC3)c(C)n(C)c2C)c1 -7.12%
CCc1ccc(NC(=O)C2=CC(c3cccs3)=NS(=O)(=O)N2C)cc1 -14.9%
COc1cc(NS(=O)(=O)c2c(C)nc3sc(C)c(C)n3c2=O)cc(OC)c1 -14.8%
COc1ccc(C)c2sc(NC(=O)c3ccc(S(=O)(=O)N4CCCC4)cc3)nc12 -8.18%
CCOc1ccccc1CNC(=O)Cn1nc(N2CCN(c3ccccc3)CC2)ccc1=O -18.2%
NC(N)=N/N=C/c1c(Cl)cccc1Cl -14.2%
COc1ccc(C(=O)NCc2ccc3c(c2)CCN3C(=O)c2ccc(F)cc2)cc1 -24%
COc1cccc(Cc2nc3ccccc3nc2SCC(=O)Nc2cc(OC)ccc2OC)c1 -23.7%
CCOc1ccccc1CNCCSc1nnnn1C -11.1%
CCOCCn1ccc2c(OCC(=O)Nc3cccc(F)c3)cccc2c1=O -12.9%
CCOc1cc(-c2ccc(OC(=O)c3ccccc3)c(OC)c2)cc(=O)c2c(C)oc(C)c12 -15.1%
Cc1ccc(C2c3c(oc4ccccc4c3=O)C(=O)N2c2nnc(C)s2)cc1 (stereo not drawn) -3.85%
CCN(CCCNC(=O)CN1N=C(c2ccccc2)CCC1=O)c1ccccc1 -22%
O=c1c2sc3ccccc3c2n(Cc2ccccc2)c(=O)n1CCc1ccccc1 0.435%
COc1ccc(C)cc1Nc1ncnc2c1c(-c1ccccc1)cn2-c1ccc(C)cc1 -9.94%
O=c1[nH]c(=O)n([C@H]2C[C@H](O)[C@@H](CO)O2)cc1F -18%
COc1ccc(S(=O)(=O)N2CCC(C(=O)Nc3cc(C(F)(F)F)ccc3Cl)CC2)cc1 -19.8%
COc1ccc(OC)c2sc(N3CCN(C(=O)C4COc5ccccc5O4)CC3)nc12 (stereo not drawn) -2.05%
O=C(Nc1cccc(F)c1)c1oc2ccccc2c1NC(=O)C12CC3CC(CC(C3)C1)C2 -8.7%
CCCCCn1cc2c(c1-c1ccccc1Br)c(=O)n(C)c(=O)n2C -33.6%
CC(C)c1ccc(NC(=O)CCS(=O)(=O)c2ccc3c(c2)CC(=O)N3C)cc1 4.17%
O=S(=O)(c1ccccc1)c1nnn2c1nc(NCc1ccccc1)c1cc(Cl)ccc12 0%
Cc1nc2nc(C)c(CCC(=O)NCc3ccccc3)c(C)n2n1 -10%
Cc1ccc2occ(CC(=O)Nc3ccc(S(=O)(=O)N4CCC(C)CC4)cc3)c2c1 -23.9%
COc1ccccc1CNC(=O)CSc1nnc(C)c2c(C)n(-c3ccccc3)nc12 -45.7%
O=C(Nc1ccc(F)c(Cl)c1)N1CCC(CN2CCOCC2)CC1 -5.74%
Cc1nc2sccn2c(=O)c1S(=O)(=O)Nc1cc(C(F)(F)F)ccc1Cl -24%
Cc1ccc(CCNC(=O)c2ccc3c(c2)nc2n3CCOC2)cc1 2.48%
CCOCCCn1c(SCC(=O)Nc2ccccc2Cl)nc2c(oc3ccccc32)c1=O 5.52%
Cc1ccccc1OCCCCn1nnc2sc3c(c2c1=O)CCC(C)C3 (stereo not drawn) -1.14%
COCCNC(=O)c1ccc(-c2nc(CS(=O)(=O)c3ccccc3)c(C)o2)cc1 22%
CN1C(=O)C2(SCC(=O)N2c2ccc(Cl)cc2)c2ccccc21 (stereo not drawn) -1.98%
CCOc1ccc(NC(=O)CSc2nc3ccsc3c(=O)n2CCCCCC(=O)O)cc1 -5.49%
CC(=O)N1CCCc2cc(S(=O)(=O)N3CCCC(C(=O)NCc4ccc(C)cc4)C3)ccc21 (stereo not drawn) -40.4%
CCOc1ccc(NCc2nc3ccccc3n2CCOc2ccc(C)cc2)cc1 -90.8%
CNNCc1ccc(C(=O)NC(C)C)cc1
CCc1ccc(-n2nc3ccc(NC(=O)COc4ccc(OC)cc4)cc3n2)cc1 -7.68%
COc1cccc(Cn2c(CNS(=O)(=O)c3ccc(Cl)s3)nc3cccnc32)c1 -27.9%
CCc1nn2c(=O)c(S(=O)(=O)Nc3ccc(C(C)C)cc3)c(C)nc2s1 -26.5%
O=C(CSc1nc2c(c(=O)[nH]1)CN(Cc1ccc3c(c1)OCO3)CC2)Nc1ccccc1Cl 0%
Cc1ccc(S(=O)(=O)C(CNC(=O)COc2ccccc2)c2ccco2)cc1 (stereo not drawn) -14.1%
